Data from PubChem BioAssay AID995 (National Center for Advancing Translational Sciences (NCATS), 2007).
The whole screen tested about 72,000 compounds, of which about 710 (0.99%) were called active. The inconclusive results got no clear call from the source; some entries with a clear call stand among them for comparison. Calls follow the shape of the dose curve; as a rule, active = well fitted inhibition curve with a large enough effect; inconclusive = small, poorly fitted or top-dose-only effect; inactive = no such curve, though single readings can be large or run the other way. No potency is given beside an inconclusive call; the fits are too rough.

Experiment: qHTS Assay for Inhibitors of the ERK Signaling Pathway using a Homogeneous Screening Assay; also: nearly all actives have a fitted effect of over 55% in size
Settings: HEK293-V1b, vasopressin-stimulated pERK AlphaScreen; activity, negative = inhibition: at 57.5 µM (top of the series) unless noted
Method in brief: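 HEK293 cells stably expressing V1b receptor, preincubated 30 min at 37 °C with compound, then stimulated 5 min with 25 nM vasopressin. Phospho-ERK by AlphaScreen SureFire after 5 h RT; normalized to DMSO and vasopressin; AC50 by Hill fit.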
% is scaled to controls: 0 for no effect and ±100 for the full control effect; potency is read from the fitted curve at half-maximal effect; tags tell the direction and shape of the fitted curve.

| Compound | Potency | activity, negative = inhibition |
| --- | --- | --- |
| CCN(CC)C(=O)Oc1ccc2c(=O)c(-c3ccc(OC)cc3)coc2c1 | inconclusive [inhibitor, partial curve] | – |
| CCCCc1cc(=O)oc2cc(C)c(CN3CCCC3)c(O)c12 | – | inactive: -8.68% |
| CCOc1ccc(-c2csc(NC(=O)C3CCCO3)n2)cc1 (stereo unspecified) | inconclusive [inhibitor, partial curve] | – |
| CC(C)n1c(=N)c(C(=O)NCCc2ccccc2)cc2c(=O)n3ccccc3nc21 | – | inactive: -3.85% |
| Cc1cc(Cl)c(S(=O)(=O)NCC2CCCO2)cc1OCC(N)=O (stereo unspecified) | inconclusive [inhibitor, single point] | – |
| C=CCn1c(SCC(=O)c2ccc(OC)cc2)nnc1-c1cc2cccc(OC)c2o1 | inconclusive [inhibitor, full curve, poor fit] | – |
| Cc1cccc2sc(NC(=O)CN(C)S(=O)(=O)c3ccc(Br)s3)nc12 | inconclusive [inhibitor, full curve, poor fit] | – |
| Cc1ccc(OCCNC(=O)c2ccco2)cc1C | inconclusive [inhibitor, partial curve] | – |
| CCN1CCN(C(c2ccccc2F)c2nnnn2Cc2ccc3c(c2)OCO3)CC1 (stereo unspecified) | – | inactive: -16.3% |
| CC(=O)N1CCc2cc(S(=O)(=O)NCCC(=O)Nc3ccc4c(c3)OCCO4)ccc21 | – | inactive: 10.7% |
| COc1c2occc2cc2ccc(=O)oc12 | inconclusive [inhibitor, partial curve] | – |
| COc1ccc(N2CCN(C(=O)c3ccc(NS(=O)(=O)c4cccc(F)c4)cc3)CC2)cc1 | inconclusive [inhibitor, partial curve] | – |
| Oc1ccc(N=Cc2ccc(O)c(O)c2)cc1 | inconclusive [inhibitor, partial curve] | – |
| CC(=O)c1ccc(NC(=O)C2CCCN2S(=O)(=O)c2ccc(C)cc2)cc1 (stereo unspecified) | inconclusive [inhibitor, single point] | – |
| O=C(c1csnn1)N1CCC2(CCCN(Cc3ccccc3)C2)CC1 | – | inactive: 9.85% |
| CC[C@@]1([N+](=O)[O-])C[C@H]2C=C[C@@H]1C2 | – | inactive: -1.8% [at 11.5 µM] |
| COCCn1c(=O)c(C)nc2cnc(OCc3ccccc3)nc21 | inconclusive [inhibitor, single point] | – |
| Cc1ccc(C)c2[nH]c(=O)c(CN(Cc3ccc4c(c3)OCO4)Cc3nnnn3Cc3ccco3)cc12 | – | inactive: -15.2% |
| CC(CCc1ccccc1)NC(=O)C1CCN(C(=O)c2sccc2-n2cccc2)CC1 (stereo unspecified) | – | inactive: -15.9% |
| Cc1cc(C(=O)NCCN2CCN(c3cccc(Cl)c3)CC2)n(-c2ccccc2)n1 | inconclusive [inhibitor, partial curve] | – |
| CS(=O)(=O)Nc1cccc(-c2nc(Nc3ccc(F)cc3)c3ccccc3n2)c1 | inconclusive [inhibitor, single point] | – |
| COC(=O)c1ccc(C)c(NS(=O)(=O)c2ccc3c(c2)OCCO3)c1 | inconclusive [inhibitor, partial curve] | – |
| CCOc1ccccc1-c1nc(-c2ccc(NC(=O)Cc3ccccc3OC)cc2)no1 | – | inactive: -13.5% |
| O=C(CSc1nc2ccccc2[nH]1)Nc1ccc2c(c1)OCCO2 | active: 31.6 µM | – |

| Compound | Potency | activity, negative = inhibition |
| --- | --- | --- |
| CC1(C)O[C@H]2[C@@H](c3[nH]nc4c(=O)[nH]c(=O)[nH]c34)OC[C@H]2O1 | – | inactive: 13.2% [at 11.5 µM] |
| CCNc1ncc2nc(CCc3ccccc3)c(=O)n(C3CC3)c2n1 | inconclusive [inhibitor, partial curve] | – |
| Cc1cccc2cc3c(N)c(C(=O)N4CCOCC4)sc3nc12 | – | inactive: -15% |
| COc1ccccc1NC(=O)CSc1nnc(Cc2cccn2C)n1CCc1ccccc1 | inconclusive [inhibitor, single point] | – |
| CCOC(=O)c1ccc(NC(=O)c2c(C)[nH]c(C(=O)OCC)c2C)cc1 | inconclusive [inhibitor, full curve, poor fit] | – |
| CCN1CCc2nc(NC(=O)Cc3ccc4c(c3)OCCO4)sc2C1 | – | inactive: -4.69% |
| C=CCOC(=O)C(C#N)c1nc2ccccc2nc1N1CCCC1 (stereo unspecified) | – | inactive: -25.2% |
| Cc1cc(O)c(-c2cc(C(=O)Nc3ccc(S(=O)(=O)N4CCOCC4)cc3)[nH]n2)cc1C | active: 25.1 µM | – |
| COc1ccccc1N1CCN(CCc2n[nH]c(=S)n2-c2ccccc2)CC1 | inconclusive [inhibitor, partial curve] | – |
| O=C(CSc1nc2cccnc2n1Cc1ccccc1)NCc1ccco1 | inconclusive [inhibitor, partial curve] | – |
| COc1cccc(CNc2ccc(S(=O)(=O)Nc3nccs3)cc2)c1O | inconclusive [inhibitor, partial curve] | – |
| O=C(CN1CCC(C(=O)c2ccc(F)cc2)CC1)Nc1ccccc1 | – | inconclusive: -33.1% [inhibitor] |
| O=C(c1ccco1)N1CCN(CC(O)COc2ccc3oc4ccccc4c3c2)CC1 (stereo unspecified) | inconclusive [inhibitor, single point] | – |
| Cc1ccc(O)c(-c2cc(C(=O)NCc3ccncc3)[nH]n2)c1 | inconclusive [inhibitor, single point] | – |
| CC1CCCC(NC(=O)CSc2ncccc2C(=O)O)C1C (stereo unspecified) | inconclusive [inhibitor, partial curve] | – |
| NC(=O)c1c(NC(=O)c2cccs2)sc2c1CCCCCC2 | inconclusive [inhibitor, single point] | – |
| c1ccccc1 | inactive | – |
| CCCCN1CCC(n2c(=O)[nH]c3ccccc32)CC1 | – | inactive: -4.12% |
| COc1cccc(N2CCN(C(=O)c3ccc4nc(N5CCCCC5)sc4c3)CC2)c1 | active: 25.1 µM | – |
| CN1CCN(C(c2cccnc2)c2ccc3cccnc3c2O)CC1 (stereo unspecified) | inconclusive [inhibitor, partial curve, poor fit] | – |
| O=C(Nc1ccc2nn(-c3ccccc3)nc2c1)c1ccc2c(c1)OCCO2 | active: 15.8 µM | – |
| CN(C)c1ncnc2ccc(-c3ccoc3)cc12 | inconclusive [inhibitor, full curve] | – |
| Fc1ccc(-c2ccc(-c3nn4c(-c5ccco5)nnc4s3)o2)cc1 | inconclusive [inhibitor, partial curve] | – |
| COc1ccc(OCC(=O)Nc2ccc(N3CCOCC3)c(Cl)c2)cc1 | inconclusive [inhibitor, partial curve, poor fit] | – |

| Compound | Potency | activity, negative = inhibition |
| --- | --- | --- |
| COc1ccc(-c2noc(CCN3C(=O)c4ccccc4C3=O)n2)cc1OC | inconclusive [inhibitor, partial curve, poor fit] | – |
| COc1ccc(CCNC(=O)CN2C(=O)c3ccccc3S2(=O)=O)cc1OC | inconclusive [inhibitor, partial curve] | – |
| CCN1CCN(Cc2ccc(OC)c(OCc3ccccc3)c2)CC1 | inconclusive [inhibitor, partial curve, poor fit] | – |
| O=C(CSc1n[nH]c(-c2ccc(S(=O)(=O)N3CCCCC3)cc2)n1)Nc1nccs1 | inconclusive [inhibitor, single point] | – |
| Cc1ccc(-c2nnc(N(C)C(=O)c3cccnc3)s2)cn1 | – | inactive: -15.8% |
| O=C(Cn1c(=O)n(CC2CCCO2)c(=O)c2ccccc21)c1ccccc1 (stereo unspecified) | inconclusive [inhibitor, partial curve, poor fit] | – |
| O=C(Nc1ccc2oc(-c3ccccc3)nc2c1)c1ccncc1 | inconclusive [inhibitor, single point] | – |
| CC#CCOC(=O)c1c(C)nc2sc3c(c2c1N)CC[C@@H](O)C3 | inconclusive [inhibitor, partial curve] | – |
| CCOc1ccc(-c2noc(COC)n2)cc1OC | inconclusive [inhibitor, partial curve] | – |
| Cc1ccc(C(=O)Nc2nccs2)cc1S(=O)(=O)N1CCCCC1 | inconclusive [inhibitor, single point] | – |
| COc1ccc(C(=O)N2CCC3(CCN(C(=O)Nc4cccc(C#N)c4)CC3)CC2)cc1 | inconclusive [inhibitor, partial curve, poor fit] | – |
| CCOc1ccccc1Nc1ncnc2ccccc12 | inconclusive [inhibitor, single point] | – |
| COc1cc(-c2csc(N3CCOCC3)n2)cc(OC)c1OC | inconclusive [inhibitor, partial curve] | – |
| Oc1c(C(Nc2nc3ccccc3s2)c2ccco2)ccc2cccnc12 (stereo unspecified) | inconclusive [inhibitor, single point] | – |
| C=CCn1c(SCC(=O)Nc2cccc(C)c2)nnc1-c1cnccn1 | – | inactive: 3.25% |
| Cc1nnc2sc(-c3cccc(NC(=O)c4cccnc4)c3)nn12 | inconclusive [inhibitor, partial curve] | – |
| CNc1nc(OC)nc(N2CCOCC2)n1 | inconclusive [inhibitor, partial curve] | – |
| Cc1sc2ncnc(NCCCn3ccnc3)c2c1C | inconclusive [inhibitor, partial curve] | – |
| COc1cc(OC)c2cc(-c3ccncc3)cnc2c1 | inconclusive [inhibitor, partial curve] | – |
| C[N+](C)(C)c1cc2c(nn1)Nc1ccccc1S2 | – | inactive: -16.5% [at 11.5 µM] |
| O=C(Nc1ccc2c(c1)OCO2)c1cccc2c1C(=O)N(C1CCCCC1)C2 | – | inactive: 40.3% |
| O=C(CCN1C(=O)c2ccccc2C1=O)N1CCN(C(=O)c2ccccc2)CC1 | – | inactive: 0.116% |
| c1nc(N2CCCC2)c2[nH]cnc2n1 | active: 31.6 µM | – |
